Values marked as one replicate rest on one cluster of the flow cell; about a third of the high ones do not repeat.
tested on: ATP; experiment: switch fluorescence ratio, 500 uM ATP over buffer (Cy3 cluster intensity, sum of 5 cycles each) (fold (ratio)); higher = stronger signal-on switching upon ATP binding; sequences stand for … in TCGTCGGCAGCGTCAGATGTGTATAAGAGACAGTTTTTTTTTTTTTTTTTTTTTTTTT…TC; settings: aptamer strand: ATP DNA aptamer (quencher-CACCTGGGGGAGTATTGCGGAGGAAGG + anchor), 100 nM annealed; ATP concentration: 500 uM; one replicate
Summary of the method: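 For every switch-domain sequence, the fluorescence ratio is the mean of per-cluster values, each being summed target-cycle Cy3 intensity over summed buffer-cycle Cy3 intensity. Clusters outside 100-1000 RFU were excluded. On a modified Illumina MiSeq flow-cell, the Cy3-labelled switching-strand clusters were annealed to 100 nM quencher-labelled ATP aptamer, imaged in selection buffer and then after 15 min with 500 uM ATP at 22 °C. Five such cycles were run, with NaOH stripping and re-annealing between them.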
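Also: ATP exposure 15 min at 22 °C before imaging.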

Sequence	switch fluorescence ratio
GCTTGTGCAC	0.947
GCTTGTTCT	0.992
GCTTTAAATC	1.01
GCTTTAACCT	1.66
GCTTTGATAC	1.37
GCTTTGGCCA	1.01
GCTTTGTAGG	1.03
GCTTTGTGCC	0.958
GCTTTTCAGA	0.962
GCTTTTTTCG	0.99
GGAAAACTTC	1.03
GGAAACCCCC	1.38
GGAAACGCCG	1.01
GGAAAGATCG	0.979
GGAAAGCGAC	1.2
GGAAATAGAA	0.988
GGAAATAGTA	0.971
GGAAATGCCA	1.02
GGAACACGCG	1.03
GGAACACTAA	1.02
GGAACAGAAT	0.989
GGAACAGGCG	1.01
GGAACATGCG	1.02
GGAACCGAGG	1.06
GGAACGATCA	1.03

Sequence	switch fluorescence ratio
GGAACGATGC	1.38
GGAACTCGGA	1
GGAAGCAAGG	2.27
GGAAGCTGGT	1.01
GGAAGGCCCG	0.974
GGAAGGGTAA	1.39
GGAAGTAAGA	0.987
GGAAGTATCC	1.04
GGAAGTGACC	0.966
GGAATGGAGT	1
GGAATTGAAA	0.947
GGAATTGGTC	1.03
GGAATTGT	0.991
GGACAAAAGC	0.994
GGACAACGTG	0.947
GGACAAGATT	1
GGACAATTGC	1.04
GGACAGGGA	1.06
GGACATTTTA	1.02
GGACCAGTGT	0.945
GGACCGGATA	1
GGACCTCCCA	1.11
GGACGACAAT	1.4
GGACGCCAGT	1.03
GGACGCGATG	1.18

Sequence	switch fluorescence ratio
GGACGCTATT	1.59
GGACGCTTAT	1.29
GGACGGATTC	1.03
GGACGGGAGG	0.941
GGACTAACGG	1.06
GGACTAATAA	0.995
GGACTATCCT	0.994
GGACTCGGGA	0.968
GGACTCTTCA	1.04
GGACTGGTGA	1.04
GGACTGTAGC	1.12
GGACTTCACC	1.12
GGACTTCAGC	0.94
GGACTTGCTG	1.05
GGACTTGTAT	0.982
GGACTTTAGG	0.955
GGAGAAATTG	1.03
GGAGAGAATG	0.966
GGAGATGGGC	0.981
GGAGATTCGC	1.02
GGAGCACCTA	1.14
GGAGCATATT	1.72
GGAGCCCTAA	1.04
GGAGCCTAAT	1.02
GGAGCCTCGA	0.97

Sequence	switch fluorescence ratio
GGAGCGCCAT	0.994
GGAGCGTTC	1.45
GGAGGAGCGC	1.05
GGAGGGGAGA	0.985
GGAGGGGTCT	1.01
GGAGGGTCGG	0.953
GGAGGGTCTG	0.95
GGAGGGTGGG	0.998
GGAGGGTTCT	1.05
GGAGGTACTC	0.981
GGAGGTGACG	0.945
GGAGGTTAAA	0.995
GGAGGTTTGT	0.971
GGAGTAATG	1.19
GGAGTACGAT	1.03
GGAGTAGCAC	1.14
GGAGTCAAAA	1.02
GGAGTCCCTC	0.98
GGAGTCGGTC	0.993
GGAGTGACGT	1.01
GGAGTGTAAG	1.03
GGAGTGTGAA	1
GGAGTGTTGT	0.964
GGAGTTGGCT	0.956
GGAGTTTTGG	0.993

Sequence	switch fluorescence ratio
GGATAAATAC	1.34
GGATAATCGC	1.01
GGATACAAAA	1.02
GGATACACAG	1.03
GGATACCGGC	1.01
GGATACCTGG	1.02
GGATAGCCTA	0.956
GGATAGTGAG	0.982
GGATAGTGGA	1.02
GGATATAGAC	1.04
GGATATTACT	1.04
GGATATTAGC	0.984
GGATATTGGA	1.04
GGATCAAGCC	0.967
GGATCAGTCG	1.04
GGATCCAAAC	1.02
GGATCCAAGG	0.994
GGATCCTTTG	0.995
GGATCGCAGG	0.994
GGATCGGAAA	1.03
GGATCGGGCA	1.04
GGATCGTCTA	0.988
GGATCTGAAG	1.06
GGATGAAGCC	0.993
GGATGACAAA	1.03

Sequence	switch fluorescence ratio
GGATGCACGA	0.989
GGATGCATGA	1.01
GGATGCGCGA	1.07
GGATGCGCTT	1.02
GGATGCTAC	1.31
GGATGGTCGG	1.02
GGATGTAATG	0.975
GGATGTATCG	1.02
GGATTACGGG	0.966
GGATTATTAT	1.01
GGATTCATAT	1
GGATTCCAAA	1.07
GGATTGCCTA	0.977
GGCAAAAGGT	1
GGCAAACTAC	1.37
GGCAAATCAC	1.09
GGCAACCTTT	1.05
GGCAACTGT	1
GGCAATAAGG	1.06
GGCAATAGTT	1.37
GGCAATCGTG	1.09
GGCACCGAAC	1.24
GGCACCTTTA	1.03
GGCACGCGGC	1.04
GGCACTAGAG	1

Sequence	switch fluorescence ratio
GGCACTGTCA	1.03
GGCAGACAGG	0.972
GGCAGACGGA	1.04
GGCAGCCCTG	1.03
GGCAGCGCAT	0.927
GGCAGCGGCT	0.971
GGCAGCTAAC	1.5
GGCAGGATGT	0.988
GGCAGGCTCG	1.03
GGCAGGGAAG	0.976
GGCAGGTCGT	0.996
GGCAGGTTGC	0.986
GGCAGTACAG	0.967
GGCAGTATAG	1.01
GGCAGTGTGG	0.971
GGCATAAAAA	0.994
GGCATAGG	1.06
GGCATATTTT	0.976
GGCATCATTG	1
GGCATCCTTT	1.04
GGCATCGGTC	1.02
GGCATCTACA	1.07
GGCATGTTAA	0.999
GGCATGTTCT	0.998
GGCCAAACAT	1.03

Sequence	switch fluorescence ratio
GGCCAAAGCC	0.961
GGCCACTGGG	1.09
GGCCACTTAG	1.01
GGCCATCGTT	0.962
GGCCCATGGC	0.993
GGCCCCCGTG	1.18
GGCCCCGTCC	1.08
GGCCCGACTC	1.05
GGCCGAAGAT	0.998
GGCCGCATAA	3.87
GGCCGCGCTT	0.984
GGCCGGTGGC	0.991
GGCCTGACAC	1
GGCCTGACTC	1.96
GGCCTGGGGA	0.995
GGCCTTATAT	0.983
GGCGAAGATT	0.997
GGCGAATGCG	1
GGCGAATGTG	0.983
GGCGACCA	1.03
GGCGATAGGT	1.01
GGCGATCGGG	1.03
GGCGCCACG	0.967
GGCGCCCTTT	0.999
GGCGCCGGGA	0.948

— the supplement of paper PMC10126150
